Assay results: paper PMC4336329 (PLoS ONE, 2015)
In all, about 310,000 compounds went through this assay and about 2,200 (0.71%) showed an effect of 50% or more. The effect is printed as a negative number. The list shows a part of the results.

Each molecule was assayed against human ether-à-go-go-related gene (hERG) potassium channel (human, UniProt Q12809) (assay: primary screen, population patch clamp on CHO cells stably expressing hERG).
human ether-à-go-go-related gene (hERG) potassium channel, sequence (Q12809 whole entry, looked up): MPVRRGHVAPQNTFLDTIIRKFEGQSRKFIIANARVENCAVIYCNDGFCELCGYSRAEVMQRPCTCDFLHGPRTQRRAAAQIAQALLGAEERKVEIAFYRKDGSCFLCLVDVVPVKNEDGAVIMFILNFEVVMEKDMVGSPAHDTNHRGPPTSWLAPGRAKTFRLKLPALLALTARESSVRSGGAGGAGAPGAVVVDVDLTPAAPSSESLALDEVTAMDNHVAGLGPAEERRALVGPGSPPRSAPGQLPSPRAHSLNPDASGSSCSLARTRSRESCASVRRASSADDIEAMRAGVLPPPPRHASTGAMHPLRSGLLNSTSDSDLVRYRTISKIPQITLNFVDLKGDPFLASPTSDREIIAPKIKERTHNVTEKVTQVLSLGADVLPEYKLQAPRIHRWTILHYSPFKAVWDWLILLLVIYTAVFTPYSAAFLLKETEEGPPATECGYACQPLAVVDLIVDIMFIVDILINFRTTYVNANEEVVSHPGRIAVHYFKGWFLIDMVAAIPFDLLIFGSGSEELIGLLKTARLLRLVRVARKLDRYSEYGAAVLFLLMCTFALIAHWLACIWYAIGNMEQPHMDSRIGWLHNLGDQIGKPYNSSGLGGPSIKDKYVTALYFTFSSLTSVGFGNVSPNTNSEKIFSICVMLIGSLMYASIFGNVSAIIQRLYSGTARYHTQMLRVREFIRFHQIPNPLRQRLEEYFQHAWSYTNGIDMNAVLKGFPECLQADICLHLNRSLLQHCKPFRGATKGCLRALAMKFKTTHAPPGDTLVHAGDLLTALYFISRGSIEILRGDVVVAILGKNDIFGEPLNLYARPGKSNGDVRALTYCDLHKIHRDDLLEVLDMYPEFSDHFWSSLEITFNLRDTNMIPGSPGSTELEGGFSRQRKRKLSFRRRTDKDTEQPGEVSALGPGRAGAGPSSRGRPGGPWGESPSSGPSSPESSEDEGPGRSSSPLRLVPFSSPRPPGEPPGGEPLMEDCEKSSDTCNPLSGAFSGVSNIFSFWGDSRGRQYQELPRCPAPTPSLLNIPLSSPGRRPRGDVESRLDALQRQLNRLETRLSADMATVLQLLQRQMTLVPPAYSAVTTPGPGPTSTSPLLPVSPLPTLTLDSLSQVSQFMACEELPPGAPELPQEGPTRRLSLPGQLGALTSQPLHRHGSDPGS

Structure (SMILES)	hERG current change (%, negative = inhibition) at 1uM [%]
S=c1[nH]nc(-c2cc3ccccc3o2)n1Cc1ccccc1	18
COc1ccc(NC(=O)/C(=C\c2ccccc2)NC(=O)c2ccco2)cc1	12.2
COc1ccc(NC(=O)CCN2CCCCCC2)c(OC)c1.Cl	9.69
COc1ccc(S(=O)(=O)NCCOc2ccccc2)cc1C	8.19
CC(=O)NC(C)c1nc2ccccc2n1C(C)C (stereo not drawn)	-4.54
O=C(NCc1ccccn1)c1ccc([N+](=O)[O-])cc1	-6.03
O=C(O)C1=C[C@H](c2ccc(C(F)(F)F)cc2)C[C@H](OCc2ccc(CO)cc2)O1	11.2
NC(=O)C(c1ccccc1)c1ncc(C(F)(F)F)cc1Cl (stereo not drawn)	3.55
COc1cc2[nH]c(=O)n(Cc3ccccc3Cl)c(=O)c2cc1OC	-3.33
CCCNC(=O)c1nn2c(C(F)(F)F)cc(-c3ccccc3)nc2c1Br	18.9
COc1ccc(CC(=O)NNC2=Nc3cccc4cccc2c34)cc1OC	4.48
O=C(NCc1cccc(C(F)(F)F)c1)C1CCCN(c2cnccn2)C1 (stereo not drawn)	-9.9
Cc1cc2c(cc1C)NC(c1nc3ccccc3[nH]1)C1=C(CC(C)(C)CC1=O)N2 (stereo not drawn)	6.6
Cc1noc(NS(=O)(=O)c2ccc(NC(=O)CSc3ncccn3)cc2)c1C	1.73
CN(C)C(=O)c1c(-c2ccccc2)oc2ccc(O)cc12	8.92
COc1ccc([N+](=O)[O-])cc1N(CC(O)CN(CC(C)C)CC(C)C)S(=O)(=O)c1ccc(C)cc1.Cl (stereo not drawn)	-3.69
CCSC1=NCCN1S(=O)(=O)c1ccc(Cl)cc1	1.57
COc1ccccc1NC(=S)N(Cc1cccnc1)Cc1ccco1	-16.3
c1ccc(C(c2c[nH]c3ccccc23)c2c[nH]c3ccccc23)nc1	-1.87
O=C1OCCN1S(=O)(=O)Nc1ccccc1	4.67
COc1ccc(CCN(C)Cc2c(O)ccc3cc(Br)ccc23)cc1OC	-8.32

Structure (SMILES)	hERG current change (%, negative = inhibition) at 1uM [%]
COc1ccc(CS(=O)(=O)CC2(O)CCN(C(=O)c3cccc(C(F)(F)F)c3)CC2)cc1	5.2
CC[C@@]12C(=O)N(c3cccc(Br)c3)C(=O)N1[C@H](c1ccc(Cl)cc1)[C@@H]1C(=O)N(C3CCCCC3)C(=O)[C@@H]12	6.83
OC[C@@H](O)[C@@H](O[C@H]1O[C@H](CO)[C@@H](O)[C@H](O)[C@H]1O)[C@H](O)[C@@H](O)CO	15.3
Cn1c(CC(=O)NNC(=O)c2ccccc2[N+](=O)[O-])nc2ccccc21	14.1
CCN1C(=NCC2CC2)N[C@@H](c2cccc(C(F)(F)F)c2)C(C(=O)OC)=C1C	2.22
c1ccc(-c2nc(N3CCCCCC3)c3ccccc3n2)nc1	-82.3
CCOC(=O)C1=C(COC(=O)CCOc2ccccc2)NC(=O)NC1C (stereo not drawn)	-0.625
COc1ccc(-n2cnnc2SCC(=O)NC2CCCc3ccccc32)cc1 (stereo not drawn)	8.08
CC(=O)Nc1cn(-c2ccccc2)nc1-c1ccccc1	-0.912
O=C(Nc1nc2cc(Cl)ccc2s1)C1CCCN(S(=O)(=O)c2cccc3cccnc23)C1 (stereo not drawn)	11
COC(=O)c1ccc(C2SCC(=O)N2Cc2ccccc2)cc1 (stereo not drawn)	5.33
CC(C)(C)c1ccc(/C=C/C(=O)NC2=NCCS2)cc1	10.4
CCOc1ccc2nc(NC(=O)CN3CCOCC3)sc2c1	-21.6
CCN(CC)S(=O)(=O)c1cccc(C(=O)Nc2ccccc2C(=O)N2CCOCC2)c1	7.74
Cn1c(SCC(=O)NC2CC2)nnc1-c1cccs1	-7.05
CC(C)(C)n1nc2c(c1NC(=O)Cc1ccc(Cl)cc1)CS(=O)(=O)C2	0.177
N/C(=N\N=C\c1cccs1)SC1CC(=O)N(c2ccc(Br)cc2)C1=O (stereo not drawn)	12.5
CCCOC(=O)c1ccc(NC(=O)COC)cc1	4.75
COc1ccc(OC)c(NC(=O)Cn2cc(C#N)c3cc(Br)ccc32)c1	1.87
CCOc1ccc(-c2nc(CSCC(=O)NCCCN3CCCC3=O)c(C)o2)cc1	27.3
CCCC(=O)Nc1nc(C)c(-c2csc(Nc3ccc(Cl)cc3)n2)s1	10.5

Structure (SMILES)	hERG current change (%, negative = inhibition) at 1uM [%]
O=C(c1cccc(S(=O)(=O)N2CCOCC2)c1)N1CCCC1	-7.69
CN(C)S(=O)(=O)c1ccc(C(=O)NNC(=O)c2ccccc2-n2cccc2)cc1	1.65
COc1ccc(/C=C2\SC(c3ccc(C)cc3)=NC2=O)cc1OC	11
COC(=O)c1cnc2c(c1C(=O)OC)c(=O)n(C)c(=O)n2C	4.97
O=C1CCCN2N=C(SCC(=O)Nc3ccccc3C(F)(F)F)SC2=N1	15.6
O=C(c1ccc(F)cc1)N(Cc1ccco1)C1CCS(=O)(=O)C1 (stereo not drawn)	15.7
COc1ccc(/C=N/n2c(C)nc3c([nH]c4ccccc43)c2=O)cc1CN1CCCC(C)(C)C1	-11.5
O=C(O)c1cc(-c2ccc(N3CCOCC3)cc2)nn1-c1ccccc1Cl	30.1
CCN1CCN(c2ccc(NC(=O)c3ccc4c(c3)OCO4)cc2)CC1	-16.7
Cc1cc2oc(C(=O)Nc3ccc(S(=O)(=O)Nc4ncccn4)cc3)c(C)c2cc1Cl	14.6
Cc1ccc(S(=O)(=O)N2CCOCC2)cc1C(=O)N1CCN(S(=O)(=O)c2cccs2)CC1	1.82
CC(C)(C)C(=O)Nc1ccc2c(c1)OCCOCCOc1cc(NC(=O)C(C)(C)C)ccc1OCCOCCO2	-36
COc1ccc(C(=O)O/N=C(\N)c2ccccn2)cc1[N+](=O)[O-]	13.5
Nc1ccc(S(=O)(=O)N2CCCCC2c2cccnc2)cc1 (stereo not drawn)	8.58
Oc1ccc(/C=N/Nc2cc(N3CCCC3)nc(N3CCCC3)n2)cc1	8.4
Cc1cccc(N2CCN(S(=O)(=O)c3ccc4c(c3)C(C)(C)C(=O)N4C)CC2)c1C	12.4
O=C1COc2ccc(C(=O)CSc3nnnn3-c3ccccc3)cc2N1	3.64
CCn1cc(C(=O)O)c(=O)c2cnc(N3CCN(C(=S)NC(=O)c4ccc(Br)cc4)CC3)nc21	9.51
CCOc1ccc(CNC(=O)c2cc3oc4ccccc4c3n2C)cc1	12.1
COc1ccc(CC(=O)Nc2c3c(nn2-c2cccc(C)c2C)CS(=O)(=O)C3)cc1	-11.4
COc1ccccc1N(C1=NCCCS1)S(=O)(=O)c1ccc(C(C)(C)C)cc1	1.17

Structure (SMILES)	hERG current change (%, negative = inhibition) at 1uM [%]
COc1ccc(-c2ccc(NCCN3CCOCC3)nn2)cc1OC	15.1
CCCC(C(=O)NC1CCCCC1)N(CC1CCCO1)C(=O)CNS(=O)(=O)c1ccc(F)cc1 (stereo not drawn)	-5.69
Cc1nc(-c2ccc([N+](=O)[O-])cc2)sc1C(=O)O	13.4
CCOc1ccc(OCCC(=O)NNC(=O)c2ccncc2)cc1	7.45
CSc1ncc(Cl)c(C(=O)Nc2c(C)cccc2C)n1	19.8
O=C(O)c1ccc2noc(-c3ccccc3)c2c1	11.4
COc1ccc(-c2cc(C(=O)N3CCCCCC3)c3ccccc3n2)c(OC)c1	9.28
Cc1ccc(C(=O)Nc2nccc(C)n2)cc1	14.6
CCOC(=O)/C=C/C(=O)Nc1ccc(S(=O)(=O)Nc2c(C)cc(C)cc2C)cc1	2.44
O=C(Nc1cccc(NC(=O)c2ccccc2[N+](=O)[O-])n1)c1ccccc1[N+](=O)[O-]	7.78
Cc1nnc(C)n1/N=C/c1cccn1C	8.5
CC(C)C1=NOC(C(=O)N2CCC(N3CCC(C(=O)N4CCOCC4)CC3)CC2)C1 (stereo not drawn)	11.4
Cc1ccc(S(=O)(=O)n2nc(OC(=O)c3c(F)cccc3Cl)cc2N)cc1	-8.27
COc1cccc(-c2cc(C(=O)Nc3c(C)nn(Cc4ccccc4)c3C)no2)c1	9.56
COc1ccc(N2CC(C(=O)N[C@@H](C)C(=O)NCc3ccccc3OC)CC2=O)cc1 (stereo partly drawn)	9.6
O=C(NCC1CCCO1)c1ccc(Oc2ccc([N+](=O)[O-])cc2)cc1 (stereo not drawn)	-12.3
NC(=O)c1nsc(C(=O)N(c2ccccc2)C(C(=O)NCc2ccc(F)cc2)c2ccc(O)cc2)c1N (stereo not drawn)	8.1
O=C(NCc1ccco1)/C(=C\c1ccco1)NC(=O)c1ccco1	11
Cc1ccc2nc3c(cc2c1)c(C)nn3-c1ccccc1	15.1
CCOc1ccc(-c2c(=O)n(OCc3ccc([N+](=O)[O-])cc3)c3ccccc3[n+]2[O-])cc1	-2.14
CNC(=O)COc1coc(CN2CCN(c3ccccc3OC)CC2)cc1=O	14.7
